Laboratory results: article PMC10726135
This is one part of the list. At the low end of the ranking the order means little. Measured with an extract: partners may take part in the binding.

Each sequence was assayed against T1, HNF4alpha8 (COS-7 nuclear extract) (UniProt P41235-5) (assay: protein-binding microarray). Conditions: COS-7 nuclear extract on double-stranded Agilent 4x180k PBM; binding buffer, salt, pH and temperature not given; high values mean tight binding; double strand, one strand shown; sequences stand for … in …GCCTAGGGAGATTAGAGTATCGGTCGA.
T1 sequence: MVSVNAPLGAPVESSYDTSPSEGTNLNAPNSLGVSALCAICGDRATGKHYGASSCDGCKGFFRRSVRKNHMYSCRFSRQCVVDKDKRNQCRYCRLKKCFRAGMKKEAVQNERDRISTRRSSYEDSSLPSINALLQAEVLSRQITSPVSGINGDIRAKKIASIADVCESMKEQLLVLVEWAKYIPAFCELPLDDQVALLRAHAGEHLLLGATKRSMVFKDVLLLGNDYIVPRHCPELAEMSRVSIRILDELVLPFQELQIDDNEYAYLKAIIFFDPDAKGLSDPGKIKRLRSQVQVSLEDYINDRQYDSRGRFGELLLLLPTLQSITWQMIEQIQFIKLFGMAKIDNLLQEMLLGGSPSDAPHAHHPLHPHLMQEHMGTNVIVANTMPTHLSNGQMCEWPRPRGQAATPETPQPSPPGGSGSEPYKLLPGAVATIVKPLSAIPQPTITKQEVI

Sequence	binding signal (log2 normalized intensity)
TGCATCGCAGTCGCCTGCAAGACAATACCT	-1.35
CTGGTGTGCTTTCTGTCCTCTCAAAGTCCA	4.48
AGGAGGGAGGCAGGGAGACAACCTGGGTGT	-1.35
ATTTGTCTCTGCTGGGCAGAGGGACAACTG	0.687
TGATTTAATACGATATTAATGGTGACCCCT	6
GATTTGACTGGAATGTCAAAGGGACAGCAC	0.375
CCCAGCTGAGATTCAGAATAGTTAAGTAAC	-1.35
AACACTGACAGATTCCTGCTAACAGATAAA	-1.3
GAGGTGGGCCCAGGGTTCTCTGTGACCTTT	7.62
GTCAGCTTCACTGATAGCGAGTTATCTGCA	-1.03
GAAGGCCCCCAGGTAGCTGCCAATGCAAAT	2.26
TTCCTTTTTTGGTTCCCCTTCCCCCAACAG	4.89
TGTGGGCAAATAGGATTAGGAAACCTGGTA	-1.35
GCCTTGCACACTCGCCTGGCTCCCCACGTG	-1.47
GAAGCTTAGAGAGAGAAATTGCTTAAGTGC	-1.33
GGAAAGGGCACTGATAACCTGCATTTGAAA	-1.18
GCTTGTCCTTTTGACCACAGTTATCTCCCC	3.02
ATGATTATGCCTCTGTGACCTATAATCAGA	3.21
TCTAGCATCCCTCTCTTGCTGGGCCCCCAG	2.16
ATTGCCTTTCTCTGTGTGTATGTGTGTGTA	3.02
CTGCCACTTATTGTGTTATGTACTTAGTGT	2.25
GACCTCACATTGTAGCTAAAATGTTAATGA	0.8
GAAATGTAGTTCCGGAGAACACGGAGTCCT	-0.943
CTGTGACACCCTGGTTGACACTCGAGGATC	-0.244
CTTGGATTTTCTCATCCCAGGGATAATGAT	-0.852

Sequence	binding signal (log2 normalized intensity)
TTCCATGTCCAAAGGTCTTCATGAGCAATA	3.52
TTAGCCTTTGAACCCCACACCTCCCTTGCA	4.29
CGGTTCCCAATAAGTTCCTCATTTTCATGT	1.15
GCACAGCTTATCACTGGTGATGTGAACCTC	2.8
AACCACCAGATAGAGCTTTTGAGGGTGACC	2.06
TCAAAGCCCAACCAGGATAGGGAGGGGTAA	-1.32
GCCTGAGCTATCTGTTTGAGGTTCACTGGG	1.81
TCAAAGGGCATTACTTGCTGGAGAAAGAGG	-1.1
ATCCCGTGGACTTTGCCTGCCCATCCCGTG	4.23
TATCTCTGTGGATAGCTCAGGGATTAACGA	-1.02
TGCTGCAATTTAAGCTTACTTCCTCTCCTA	-1.33
GCACTGATAAGCGTATTTCAACCTTTGATC	8.45
ATGATAAGTTGGAATTTGGGTGATCCTGGT	1.44
CTTTGGCCTTTTGTGAGATATGGACTGTAG	3.11
TACAGAGCTGAAGTTTGCAAACAGTAAAGA	-0.901
TGTCTCTTCTTGTACCTCTGGTGATTACCA	0.864
TGGAAGGCTGTATGTACACTTGCCCTCTCA	3.73
TTTGAAGTCTGGTGGCAAGTACCCTTTATC	1.93
GGGCTGGTTGGCACGCTTAGGGAACAAAGG	1.87
ATACACACACACCCCTCCACTGGACAGCAG	2.5
ATGAAGCTAAAAGAAGTCCAAGGACTTATC	-1.26
GGAAATACCGACAACGCCAAGGACCGCCAA	-1.24
AGCCTTATCTTCCAGCCCTGTCTCTCAGGT	-0.0104
TCCTCCTATGTCAATAGAGCATGAGAACTT	0.343
GGTCACACAGCTAAGAGCCGCAGAGCTAAT	-1

Sequence	binding signal (log2 normalized intensity)
GGTCATCTGAGGGAAAAGATAAGATTATCT	-1.25
CTAAGCGATAAGGAGGAAGGACACTTAGAG	-1.34
CCGCGCCCCGCCCCCAGTGCACCTTAATAA	5.45
AAACACATGCAATCACACTAATCTGTCAGA	-0.959
TTTCTTCTCTGTAGGTAAACAGTGACTCAT	1.73
GTTCTTATTTGCTGAGGAAGACTTCATTCA	-1.28
GATAAGAAGACTCCAGGGGACTGCCTCTTC	-1.35
TCACTCAGCAATAAATACCAAAGCCATGGC	-1.09
ATAGCCCAAGTTCAAAGGTTATCTGCTGGC	4.87
TTCACTGTTTGCTTTTCTTATTTACCGAAA	0.799
AATTTGAACCAAGATCTGTGAAAGAAAAGT	-0.147
GCACCCGGGCAGCCTGTGGCCAGGCTGCGT	-1.29
TCTGATTTCCCCGTCCCAAGCTGAGGTCTG	2.74
CTGTTAACTTCTTATGCATAGATGTTTAGC	0.508
TTGGGGCCCACAGAGTCCAGAGGTCACTTT	6.63
AAGACCGGTATTTGAGATATTTTTCAGACC	0.389
ACTCTTATCAGACAGGATATTTTGAGGGCT	-1.23
CAAGGGCTTACAACTCTAAGGGGGAAAGTC	-1.29
CACCTGCCCTCAGGGAGCTCCAGCACTGGG	-1.18
ATATTCACTATCTGATCCTTTACAGAGATA	0.68
CGTCGCTGAGTGGAGGCCCAGTAAGTCCCA	-1.43
TTATCTGGGCCAGGTATTTGGACTTTTTGT	4.57
GATCTGGGTGTGCCATTCTTCCAGTTGTGT	1.69
GTTGAGGAGTTTGTACTTTATCCTACAAGG	3.09
TACTGGGGATGGACTTTGGCCCTCAGCCCA	9.48

Sequence	binding signal (log2 normalized intensity)
CCTTATCAGAAGGAAAGTCTCCCTCCCTTT	1.72
GATCATCTTCACCTGCCCTGAGTCCAGCCT	1.83
AAAATATGGACTTTGGAATTAAGAAAAGCT	5.77
TGGATCTTGAAGCAGAAAACCACTGTGCTC	-0.751
AGGAGGGACTGAACAGATATTGGCCAAAGG	1.11
GACCTTGGAATGTCAAGATTGAGACATTCA	-0.127
GAAAAGGCCTGACCTTTGCCCTCTGGCCCT	9.29
TCCCCCTGCCCTTCGTCCTGAGCAGTCCCT	2.79
CTAGGGGGCACCTCTGAAAGCACTTGTAGG	-1.26
GCCTTCCCCGCCCGCAGCCCAGTCTTGGCC	3.6
TAAAAATTAGCTGAACATGGTGACACACAC	-0.563
GGAATTCTTCACCAAATCATTTCACTTCCT	-1.17
GACCTTTGACCTTTATACCTGTACGTTACT	7.64
CCACCCTGGCAGAGGAAAAAGTCCCTGGTC	-0.806
AGTCTGGAAGTTGAATTCCTTCTTCTTCTG	0.0887
ATTCAACAGAGCTATTTTAGGGTAAAGATC	0.885
CACCAGCTTCTTCTCTTTGACAAAAAATGA	0.27
AGATAAGGCTAGTAACACTCACATTCCACG	-1.27
ATTTATTACAGAGAGGGGGAGTGAAGGTTA	1.17
TAGCCTATCAGAAGAATCTGTATCAGCCTG	-0.8
CCAGCCTGTCGGAATTTGCCCTGTGGTCTA	3.59
CCTGGTAGTGCGACAAGAATGTGGTTCTTT	1.14
ATATTAACCTTTGCCCCAGCTGTCACCCAG	5.72
GCTCTGTGCCTTGTATTTCAAAACTGATAA	0.224
ATGCTGGGGACCTTTGGCCTTTACCTGTTA	5.47

Sequence	binding signal (log2 normalized intensity)
GAACTTTTACCTAATGTTCACAATAAGAGG	0.562
GAGTTGAGTTGGAGAAGAGCAAAGATCATC	2.46
AGCATGCTTCCCAAATGGAGTGCCCTAGGA	1.55
GCTCGGCTCGCTCTCCCTGCTGGCCTGGGA	-1.26
GCTTTAGATATCAGAAATGCATGAGTGACC	2.64
TAATTGAGTAACCAGCTGCCTCTTGTGTTC	1.16
TCGCGCCCCAACGGATACCTCTTTGAACTG	1.45
ACTGATTCTCCAGGAAGTTCAGGCCTCGGC	-1.28
ACCAAATGGGAACATTCCTCAGGGAATTTC	-1.27
CCTTATGACGGACAAAGGGCTCTCTCACCA	-1.21
GTCAGAGATTTCTTTACCATACCAGATGAA	0.211
TTATGTTGGCACTTCTCTCGGCCTTAAGAG	-1.49
ATAGAGATTGCTTAATGCAAACTCCAGCAT	-1.35
AGTGGCTTCATTCCCGAGTGCCTTTAGAGG	1.32
TCACCAATGGTAACTGAAAGTCATGCTGAA	-1.41
ATGACAGTACCTCTCAAAAATCTCACTCAC	-1.27
CTGAGCTGGCAGGGAGGAGGGATCAAGCAG	-1.5
GTTTAGGAGGAAATAGAGAGCAGACAGGGG	-1.36
GGTGGACCAAAACACTTGTGTCAACCGTGT	0.396
AAAGATAATATTTTTGACTTACCATTTGCT	-1.34
TACACAGAAGTTAATTTCAAAACAAATAAA	-1.28
CCTCAATGCTATCTCCCAGTTCTTTTGACC	2.7
GGGGGCGACCTGCTGGACGGGAGGAAAACT	-1.36
TGCAACCAGTTGGTGGGTCAAGGTGCAAAG	3.74
CTCCCCACAAATTCTGTACTTCAACCAGGT	1.91

Sequence	binding signal (log2 normalized intensity)
CACTGCTCACAGGTTGTACTATGACCCAAA	6.03
TAATGAGGCCACTCCTGATAGCTAGAGAGT	-1.39
GCCTGCAAGTTCAAAAGGACTCCCAGAGCA	-1.27
CTTTCCACTCCCATTACTTCTGTTTGCATT	0.958
AGAGTTAATAACAGACCATGCCATGCATTT	-1.33
GGCTAGAAAAGAAGGATAGAGAGTTGGGAG	-1.38
GTGTTCAGAGCTTGCTGCATTCCCCCACCT	4.43
CCGTCCTGTCCTGGACTTTCCTTTGTTGGG	2.84
CATGAGAGAAAAGAATAAAATTGTACTTCG	1.63
CCAGGGTGAGAGGGACCCTTCCTCGGTGGA	-0.795
CCCTTGGAATGTGACCTTAGACCCCTGAAT	6.49
GATGATCAAAGGTCAGTCTTAGGACCACAT	4.92
ACCTCCCCTCTGACCAGAGACATTCCAACC	2.18
CTAAGAGAAATCCACACAGCACTGACCTTT	6.82
CATGTAACCCCTTTTCAATTCCTTATCTCG	1.36
GAATCAAGGCAAGCCTTATCACTGTTTGGC	-1.23
GTTATCCCTAGGAAGGATAAGAGCAAGAAA	-1.37
CCAAAAACAAAACTGGTCATACAGCCTGAC	-1.24
AAGGGAGCACAACCCGGGCGCACAAGATGC	-1.3
CAGAGAGAGAGAGAGAATGACCCTTGCTTG	4.14
